# Measurements: US20230134136A1 (priority 2020, published 2023)
# Test system: patients with confirmed COVID-19 infection
# Details: patients with confirmed COVID-19 infection treated with rasburicase; FIG. 6 legend
molecule,measurement,value
"rasburicase: A supplement of the uricase protein; uric acid lowering agent (protein, UniProt Q00511 2-302, looked up) Uricase: SAVKAARYGKDNVRVYKVHKDEKTGVQTVYEMTVCVLLEGEIETSYTKADNSVIVATDSIKNTIYITAKQNPVTPPELFGSILGTHFIEKYNHIHAAHVNIVCHRWTRMDIDGKPHPHSFIRDSEEKRNVQVDVVEGKGIDIKSSLSGLTVLKSTNSQFWGFLRDEYTTLKETWDRILSTDVDATWQWKNFSGLQEVRSHVPKFDATWATAREVTLKTFAEDNSASVQATMYKMAEQILARQQLIETVEYSLPNKHYFEIDLSWHKGLQNTGKNAEVFAPQSDPNGLIKCTVGRSSLKSKL",severity of acute kidney injury,decreased severity of acute kidney injury
